In publication PMC4336329 (PLoS ONE, 2015):
About 14,000 (4.5%) of roughly 310,000 compounds showed an effect of 50% or more. The effect is printed as a negative number. This is one part of the list.

molecular target: human ether-à-go-go-related gene (hERG) potassium channel (human, UniProt Q12809); test: primary screen, population patch clamp on CHO cells stably expressing hERG
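Note: peak tail current of the secondary pulse compared with the same well before compound.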

Chain of human ether-à-go-go-related gene (hERG) potassium channel (Q12809 whole entry, looked up): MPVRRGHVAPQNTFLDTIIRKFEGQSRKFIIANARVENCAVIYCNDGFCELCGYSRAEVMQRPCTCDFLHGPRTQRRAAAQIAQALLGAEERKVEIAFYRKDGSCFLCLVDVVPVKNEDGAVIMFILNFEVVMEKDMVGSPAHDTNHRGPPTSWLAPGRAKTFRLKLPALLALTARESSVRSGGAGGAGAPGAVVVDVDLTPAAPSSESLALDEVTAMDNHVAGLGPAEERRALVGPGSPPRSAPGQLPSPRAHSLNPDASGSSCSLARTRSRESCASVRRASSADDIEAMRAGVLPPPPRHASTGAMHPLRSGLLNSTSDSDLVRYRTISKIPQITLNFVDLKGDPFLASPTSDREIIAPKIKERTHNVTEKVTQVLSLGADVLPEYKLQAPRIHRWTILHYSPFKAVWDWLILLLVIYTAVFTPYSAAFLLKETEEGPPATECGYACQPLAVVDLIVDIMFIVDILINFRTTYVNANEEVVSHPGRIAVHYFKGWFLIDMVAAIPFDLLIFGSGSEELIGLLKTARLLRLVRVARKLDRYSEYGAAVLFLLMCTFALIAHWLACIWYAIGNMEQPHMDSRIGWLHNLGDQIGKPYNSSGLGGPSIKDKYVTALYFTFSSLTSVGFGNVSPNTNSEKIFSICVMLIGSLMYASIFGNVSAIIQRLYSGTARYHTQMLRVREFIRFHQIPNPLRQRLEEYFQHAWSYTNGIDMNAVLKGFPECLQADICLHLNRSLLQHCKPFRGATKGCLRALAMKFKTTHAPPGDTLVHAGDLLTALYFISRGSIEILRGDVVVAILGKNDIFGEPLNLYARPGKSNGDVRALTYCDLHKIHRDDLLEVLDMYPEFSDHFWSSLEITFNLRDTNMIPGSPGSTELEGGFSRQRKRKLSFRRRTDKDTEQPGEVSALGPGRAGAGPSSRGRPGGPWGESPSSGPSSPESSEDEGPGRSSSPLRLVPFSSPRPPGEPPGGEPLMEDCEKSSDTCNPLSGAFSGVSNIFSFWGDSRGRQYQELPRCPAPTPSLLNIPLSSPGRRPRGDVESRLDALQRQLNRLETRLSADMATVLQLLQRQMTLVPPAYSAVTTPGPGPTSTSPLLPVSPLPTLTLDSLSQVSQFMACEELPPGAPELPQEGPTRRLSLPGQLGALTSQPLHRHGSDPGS

First: CCOC(=O)c1cc(NC(=O)c2ccc(OC)cc2)c(=O)oc1-c1ccccc1
Second: CCOC(=O)c1cc2cc3ccccc3cc2oc1=O
The “hERG current change (%, negative = inhibition) at 10uM” value of the first is lower: -5.04% for the first, -1.57% for the second.

Going from `COc1cc(/C=N/N2CCN(Cc3ccc(Cl)cc3)CC2)cc(Br)c1O` to `CCOc1ccc(/C=N/N2CCN(Cc3ccccc3)CC2)cc1`, the “hERG current change (%, negative = inhibition) at 10uM” value rises from 3.3% to 4.19%.

Going from `CC12CC3CC(C)(C1)CC(C(=O)NC(=S)N1CCCCC1)(C3)C2` to `COc1ccc(S(=O)(=O)N2CCOCC2)cc1C(=O)N1CCCCC1`, the “hERG current change (%, negative = inhibition) at 10uM” value falls from 6.36% to -31.6%.

Going from `O=C1CNC(=S)N1Cc1ccc(Cl)cc1` to `COc1ccc(CN2C(=O)NC3(CCOc4ccccc43)C2=O)cc1F` (stereo not drawn), the “hERG current change (%, negative = inhibition) at 10uM” value falls from 0.829% to -13.4%.

Going from `Cc1ccc(-c2noc(CCC(=O)Nc3cccc(C#N)c3)n2)cc1` to `CC1(c2ccccc2)NC(=O)N(CC(=O)Nc2cccc(C#N)c2)C1=O` (stereo not drawn), the “hERG current change (%, negative = inhibition) at 10uM” value rises from -13.8% to 3.1%.

First: O=C(Nc1ccc(S(=O)(=O)Nc2ncccn2)cc1)c1ccccc1NS(=O)(=O)c1ccc(F)cc1
Second: CN(Cc1ccc(F)cc1)C(=O)c1ccc(NS(=O)(=O)c2ccccc2)cc1
The “hERG current change (%, negative = inhibition) at 10uM” value of the first is higher: 9.91% for the first, -34.3% for the second.

Compared with `COc1cccc(-c2noc(C3CCCN(S(=O)(=O)c4cccc(Cl)c4C)C3)n2)c1` (stereo not drawn), `COc1ccc(/C=N/NC(=O)c2cccc(S(=O)(=O)N3CCCC3)c2)cc1O` is lower in “hERG current change (%, negative = inhibition) at 10uM” value: -4.59% for the first, -20.3% for the second.

Compared with `Cn1c(=O)n(Cc2ccco2)c(=N)c2c3c(sc21)CCCC3`, `O=C(Nc1ccon1)c1cc2c(s1)CCCCCC2` is higher in “hERG current change (%, negative = inhibition) at 10uM” value: -31.4% for the first, -7.56% for the second.

Going from `COc1ccc(CCNS(=O)(=O)c2ccc(Cl)s2)cc1OC` to `Cc1cc(C)c2c(N)c(S(=O)(=O)Cc3ccccc3)sc2n1`, the “hERG current change (%, negative = inhibition) at 10uM” value falls from -4.35% to -33.3%.

Compared with `Cc1ccc2c(CSc3nc4nc(C)cc(C)n4n3)cc(=O)oc2c1`, `CCCCSc1nnc2nc(C)cc(C)n12` is higher in “hERG current change (%, negative = inhibition) at 10uM” value: -21.8% for the first, -16% for the second.

Compared with `CCc1cc(C(=O)N=Nc2c(O)[nH]c3c(Br)cc(Br)cc23)c2ccccc2n1`, `CCCNC(=O)c1ccc(-c2nn(C)c(=O)c3ccccc23)cc1` is lower in “hERG current change (%, negative = inhibition) at 10uM” value: 16.1% for the first, 4.68% for the second.

First: CCCCCC(=O)Nc1ccc(C2C(=O)c3ccccc3C2=O)cc1
Second: CCOC(=O)C1C(=O)NC(c2ccccc2)=NC1c1ccc(Cl)cc1 (stereo not drawn)
The “hERG current change (%, negative = inhibition) at 10uM” value of the first is higher: 8.97% for the first, -5.94% for the second.

Compared with `COc1ccccc1CNCC(O)Cn1c2ccccc2c2ccccc21` (stereo not drawn), `COc1ccccc1/C=C(/CC(=O)NCc1ccccc1)c1nc2ccccc2s1` is higher in “hERG current change (%, negative = inhibition) at 10uM” value: -45.5% for the first, 7.17% for the second.

First: CC1CN(C(=O)CCCN2C(=O)c3ccccc3C2=O)CC(C)O1 (stereo not drawn)
Second: NC(=O)CCn1c(=O)oc2ccccc21
The “hERG current change (%, negative = inhibition) at 10uM” value of the first is higher: 14.3% for the first, -6.59% for the second.

First: CC[C@@H](C)[C@H](NS(=O)(=O)c1ccc(C)cc1)C(=O)N1CCC(C(=O)NCC(=O)O)CC1
Second: CC1CCN(C(=O)CCNS(=O)(=O)c2ccc3c(c2)c(=O)n(C)c(=O)n3C)CC1
The “hERG current change (%, negative = inhibition) at 10uM” value of the first is higher: 3.83% for the first, 3.47% for the second.

First: CN1/C(=C\C=C2/C(=O)Oc3ccccc3C2=O)C(C)(C)c2ccccc21
Second: CC1CCC2C(=O)N(c3ccccc3OC(=O)c3ccccc3)C(=O)C2C1 (stereo not drawn)
The “hERG current change (%, negative = inhibition) at 10uM” value of the first is lower: 3.09% for the first, 6.37% for the second.

First: Cc1ccc(N2CC(C(=O)N3CCCCCC3)CC2=O)cc1 (stereo not drawn)
Second: COC(=O)CSc1ccc(S(=O)(=O)N2CCCCCC2)cc1[N+](=O)[O-]
The “hERG current change (%, negative = inhibition) at 10uM” value of the first is lower: 11.5% for the first, 23.7% for the second.

First: CC(=O)c1cc(CC=C(C)C)c(O)c(CC=C(C)C)c1O
Second: Cc1ccc(C(=O)CC(=O)c2cc(Cl)ccc2O)cc1
The “hERG current change (%, negative = inhibition) at 10uM” value of the first is higher: 9.26% for the first, 8.83% for the second.

Compared with `CCC(=O)c1ccc(Oc2nc3c(c(=O)n(C)c(=O)n3C)n2CC)cc1`, `CCCn1c(N)c(N(CCOC)C(=O)c2ccc(C#N)cc2)c(=O)[nH]c1=O` is higher in “hERG current change (%, negative = inhibition) at 10uM” value: -2.89% for the first, 27.6% for the second.

Going from `O=C(CN1C(=O)CSc2ccccc21)Nc1ccccc1C(=O)N1CCOCC1` to `CC1(c2ccc3c(c2)OCCO3)NC(=O)N(CC(=O)Nc2c(F)cccc2F)C1=O` (stereo not drawn), the “hERG current change (%, negative = inhibition) at 10uM” value falls from 7.69% to -0.206%.

Going from `CN(c1ccccc1)S(=O)(=O)c1cccc(NC(=O)c2nn(C)c(=O)c3ccccc23)c1` to `COc1ccccc1NC(=O)CN(c1ccc([N+](=O)[O-])cc1)S(=O)(=O)c1ccccc1`, the “hERG current change (%, negative = inhibition) at 10uM” value rises from -23.8% to -11.6%.

First: Cc1ccc(C(=O)COC(=O)CCN2C(=O)C3C4CCC(C4)C3C2=O)cc1C (stereo not drawn)
Second: Cc1cc(NC(=O)COC(=O)C2CC2)ccc1Br
The “hERG current change (%, negative = inhibition) at 10uM” value of the first is higher: 7.04% for the first, -4.02% for the second.

Compared with `CCc1ccc(C(=O)COC(=O)CNC(=O)c2ccc(N3C(=O)c4ccccc4C3=O)cc2)cc1`, `CC(=O)NCC(=O)OC(C(=O)c1ccccc1)c1ccc(Cl)cc1` (stereo not drawn) is lower in “hERG current change (%, negative = inhibition) at 10uM” value: -7.76% for the first, -8.87% for the second.

Going from `Clc1cc(NC2CCCCC2)ncn1` to `Cc1ncccc1C(=O)N1CCCC(CNC(=O)C2(c3ccc(Cl)cc3)CC2)C1` (stereo not drawn), the “hERG current change (%, negative = inhibition) at 10uM” value falls from 26.3% to 11.2%.

Going from `COC(=O)c1ccc(C2C(C(=O)Nc3ccc(C)cc3C)=C(C)Nc3ncnn32)cc1` (stereo not drawn) to `CCN(CC)c1ccc(NC(=O)c2cc(OC)cc(OC)c2)c(C)c1`, the “hERG current change (%, negative = inhibition) at 10uM” value falls from -3.95% to -19.9%.

Compared with `CN(C)S(=O)(=O)c1ccc(C(=O)Nc2nnc(SCc3ccccc3)s2)cc1`, `O=C(Nc1ccc(F)cc1)c1ccc2nc[nH]c2c1` is lower in “hERG current change (%, negative = inhibition) at 10uM” value: 18.3% for the first, 11.4% for the second.

Compared with `CCOCCc1c(O)nc(SCCOc2ccc(C)c(C)c2)[nH]c1=O`, `C=CCn1c(CCCOc2ccc(Cl)cc2Cl)n[nH]c1=S` is higher in “hERG current change (%, negative = inhibition) at 10uM” value: 7.24% for the first, 7.6% for the second.

First: Cc1ccc(-n2nnnc2-c2ccccc2)cc1
Second: COC(=O)c1ccc(-n2cnc3ccccc32)nc1
The “hERG current change (%, negative = inhibition) at 10uM” value of the first is lower: -1.18% for the first, 10.2% for the second.

Compared with `CCc1ccccc1NC(=O)Nc1ccc2c(c1)OCO2`, `CC(=O)Nc1cccc(NC(=O)COc2ccc3c(c2)CCC3)c1` is lower in “hERG current change (%, negative = inhibition) at 10uM” value: 26.6% for the first, -14.2% for the second.

Compared with `CCN(CC)CCN1C(=O)c2ccccc2NC1c1cc(OC)c(OC)c(OC)c1` (stereo not drawn), `CN(C)CCNC(=O)c1nn(C)c2c1CCc1ccccc1-2` is higher in “hERG current change (%, negative = inhibition) at 10uM” value: -40.7% for the first, -12.4% for the second.

Going from `O=C(COC(=O)C1CC(=O)N(CCc2ccccc2)C1)c1ccc[nH]1` (stereo not drawn) to `O=C(CSc1ccccc1)NCCCc1ccccc1`, the “hERG current change (%, negative = inhibition) at 10uM” value rises from -41.8% to -4.52%.

Going from `FC(F)(F)c1ccc(Oc2ccccc2Cl)nc1` to `O=C(O)c1sc2cc(C(F)(F)F)cnc2c1-c1cccs1`, the “hERG current change (%, negative = inhibition) at 10uM” value falls from 14.3% to -1.86%.

First: CN(C)CCCC(C)(O)C(Cc1ccccc1)c1ccccc1.Cl (stereo not drawn)
Second: O=C1C2C3c4ccccc4C(c4ccccc43)C2C(=O)N1Cc1cccnc1 (stereo not drawn)
The “hERG current change (%, negative = inhibition) at 10uM” value of the first is higher: 7.05% for the first, -14.7% for the second.

Going from `CCOC(=O)Cc1csc(NS(=O)(=O)c2ccc([N+](=O)[O-])cc2)n1` to `CCOC(=O)/C(=C/Nc1ccccc1)[N+](=O)[O-]`, the “hERG current change (%, negative = inhibition) at 10uM” value rises from 7.89% to 8.7%.

First: CCn1nc(C)c(Br)c1C(=O)Sc1ccccc1Cl
Second: Cc1ccc(/C=N/OC(=O)c2nn(C)cc2Cl)cc1
The “hERG current change (%, negative = inhibition) at 10uM” value of the first is higher: 21.2% for the first, 1.81% for the second.

Compared with `O=C(OC1CCOC1=O)c1ccc(N2CCCC2)c([N+](=O)[O-])c1` (stereo not drawn), `Cc1cccc(NC(=O)c2cc(S(=O)(=O)N3CCCCC3)c[nH]2)c1C` is higher in “hERG current change (%, negative = inhibition) at 10uM” value: -13.9% for the first, 12.4% for the second.

Compared with `CC(=O)c1ccc(N(C(=O)CNC(=O)c2ccco2)C(C(=O)NC2CCCC2)c2ccco2)cc1` (stereo not drawn), `COc1ccc(C(=O)c2cn(-c3cccc(Br)c3)nc2C(C)=O)cc1` is higher in “hERG current change (%, negative = inhibition) at 10uM” value: 8.35% for the first, 9.29% for the second.

Going from `CC(C)[C@H](NC(=O)N1CC(=O)Nc2ccccc21)C(=O)N1CCC[C@@H]1C(=O)O` to `COC(=O)/C=C(\Oc1ccccc1)C1(O)CCCCC1`, the “hERG current change (%, negative = inhibition) at 10uM” value rises from 8.41% to 11.6%.

First: O=[N+]([O-])c1ccc(N/N=C/c2cccs2)nc1
Second: CCOc1ccc(NC(=O)CSc2ccc3nnc(-c4cccnc4)n3n2)cc1
The “hERG current change (%, negative = inhibition) at 10uM” value of the first is higher: 13.8% for the first, -54.7% for the second.

Compared with `COCC1CCN(C(=O)c2cc(COc3ccc4ncccc4c3)on2)CC1`, `Cn1ccnc1CN1CCN(C(=O)c2cc(COc3ccc(F)c(F)c3)on2)CC1` is lower in “hERG current change (%, negative = inhibition) at 10uM” value: 8.36% for the first, -32.9% for the second.

Going from `O=C(O)c1ccc(NC(=S)NC(=O)c2cncc(Br)c2)cc1` to `CC(C)C(C(=O)Nc1ccncc1)c1ccc(Cl)cc1` (stereo not drawn), the “hERG current change (%, negative = inhibition) at 10uM” value falls from 20.1% to 8.32%.

Compared with `CCc1c(C#N)c(SCc2c(C)noc2C)nc2c1C(=O)CC(C)(C)C2`, `O=C(c1cc2ccccc2oc1=O)N1CCSC1c1ccco1` (stereo not drawn) is higher in “hERG current change (%, negative = inhibition) at 10uM” value: -10.8% for the first, 4.13% for the second.

First: O=C1c2cc(O)c(O)cc2S(=O)(=O)C1c1ccccc1 (stereo not drawn)
Second: O=C(COc1ccc(Cl)cc1Cl)N/N=C1\CCCc2ccccc21
The “hERG current change (%, negative = inhibition) at 10uM” value of the first is higher: 15.1% for the first, 2.52% for the second.

Compared with `Cc1csc2nnc(N)n12`, `CS(=O)(=O)n1nc(C(=O)N2CCOCC2)nc1N` is lower in “hERG current change (%, negative = inhibition) at 10uM” value: 8.19% for the first, 4.68% for the second.

Going from `Cc1ccc2nc3n(c2c1)CCCN3` to `CC1CC(C)CN(S(=O)(=O)c2cccc(C(=O)N3CCN(c4ccc(F)cc4)CC3)c2)C1` (stereo not drawn), the “hERG current change (%, negative = inhibition) at 10uM” value falls from -8.28% to -51.9%.
